# Assay results taken from PubChem BioAssay AID1159614 (National Center for Advancing Translational Sciences (NCATS), 2016).
# Hit rate of the full screen: of about 45,000 compounds, about 65 (0.1%) were called active. Calls follow the shape of the dose curve; as a rule, active = well fitted activation curve with a large enough effect; inconclusive = small, poorly fitted or top-dose-only effect; inactive = no such curve, though single readings can be large or run the other way. The list shows a part of the results.
# Target: Galactocerebrosidase (Homo sapiens) (UniProt P54803)
# Assay: A Novel Cell-Based Assay to Identify Small Molecules for B -Galactocerebrosidase; also: 0% is about no effect; nearly all actives have a fitted effect of over 65% in size
# Conditions: 145M-Twi-hGALC-G270D cells, HMU-beta-Gal fluorescence, 48 h; series mostly up to 57.5 µM; activation: at the top concentration
# Procedure, shortened: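 qHTS, 1536-well; 145M-Twi-hGALC-G270D cells (WT line also made) in DMEM/F12 + 10% FBS; compound incubation on live cells; HMU-β-gal 0.1 mM final, pH 5.2, NaTC; carbonate stop; fluorescence increase = enhanced residual activity.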
# UniProt P54803, sequence (P54803 whole entry, looked up): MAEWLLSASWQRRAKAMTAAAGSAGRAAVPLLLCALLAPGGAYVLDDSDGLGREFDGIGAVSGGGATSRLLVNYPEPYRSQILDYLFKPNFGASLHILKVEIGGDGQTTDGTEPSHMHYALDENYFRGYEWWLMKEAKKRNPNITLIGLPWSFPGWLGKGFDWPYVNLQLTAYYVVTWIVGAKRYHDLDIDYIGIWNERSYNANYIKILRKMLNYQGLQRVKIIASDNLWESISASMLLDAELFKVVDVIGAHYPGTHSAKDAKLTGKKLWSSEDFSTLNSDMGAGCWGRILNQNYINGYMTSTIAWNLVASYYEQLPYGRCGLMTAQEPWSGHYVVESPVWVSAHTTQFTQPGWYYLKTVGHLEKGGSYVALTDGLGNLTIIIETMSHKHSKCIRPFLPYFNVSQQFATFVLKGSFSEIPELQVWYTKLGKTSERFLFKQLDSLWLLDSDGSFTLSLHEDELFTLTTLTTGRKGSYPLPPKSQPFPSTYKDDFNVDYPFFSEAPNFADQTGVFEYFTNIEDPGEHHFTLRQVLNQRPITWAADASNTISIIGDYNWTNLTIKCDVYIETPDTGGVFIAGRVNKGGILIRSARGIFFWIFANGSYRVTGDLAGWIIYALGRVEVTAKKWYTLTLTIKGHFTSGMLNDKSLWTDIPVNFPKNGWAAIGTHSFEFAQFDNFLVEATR
row,Compound,activation
1,Cc1ccc(O)c(-c2n[nH]c3c2C(c2ccc(F)cc2)N(Cc2ccco2)C3=O)c1 (configuration not stated),inactive: -12.8%
2,CC(C)OCCCNC(=O)CCCN1C(=O)CCn2nc(-c3cccn3C)cc21,inactive: -11.1%
3,O=C(COCc1cc(-c2cccs2)on1)Nc1cc(C(F)(F)F)ccc1Cl,inactive: -11.3%
4,COc1cccc(C(=O)N(Cc2ccc(C)o2)C2CCS(=O)(=O)C2)c1 (configuration not stated),inactive: -16.2%
5,COc1ccc(-c2cc(C(F)(F)F)nc(NCc3ccc(F)cc3)n2)cc1,inactive: -8.42%
6,CCOc1ccc(NC(=O)CSc2oc(-c3ccc(C)cc3)nc2S(=O)(=O)c2ccc(C)cc2)cc1,inactive: -17.8%
7,CCOc1ccc(N2CC(c3nc4ccccc4n3CCOc3ccccc3)CC2=O)cc1 (configuration not stated),inactive: -9.48%
8,Cc1ccc(NC(=O)c2cc(S(=O)(=O)N3CCCCC3)c[nH]2)cc1F,inactive: -12.5%
9,Cc1nc2ncnn2c(C)c1CCC(=O)NCc1cccc(Cl)c1,inactive: 2.82%
10,Cc1nn(-c2ccccc2)c2sc(C(=O)Nc3cccc(Br)c3)cc12,inactive: -10%
11,COc1ccc(C2C=C(c3ccccc3)Nc3nc(NC(=O)/C=C/c4ccc(Cl)cc4)nn32)cc1 (configuration not stated),inactive: -11.3%
12,Cc1cccc(NC(=O)c2c(C)oc3ncnc(N4CCCCC4)c23)c1C,inactive: -10.6%
13,CCCCc1nn2c(=O)cc(COC(=O)c3ccccc3NC(=O)c3cccc(C)c3)nc2s1,inactive: 0.137%
14,Cc1noc(C)c1S(=O)(=O)NCCc1csc2nc(-c3ccc(Cl)cc3)nn12,inactive: -17.5%
15,O=C(COc1ccc(F)cc1)Nc1ccc(Cl)c(-c2nc3ccccc3[nH]2)c1,inactive: -8.9%
16,COc1ccccc1-c1nnc(C2CCN(S(=O)(=O)c3ccc(F)c(C)c3)CC2)o1,inactive: -10.5%
17,CCOC(=O)c1c(NC(=O)COc2ccc(Br)cc2)sc(C(C)=O)c1C,inactive: -18.2%
18,CCOC(=O)N1CCN(C(=O)Cn2ncc3c4ccccc4n(Cc4ccc(F)cc4)c3c2=O)CC1,inactive: -7.04%
19,CCOc1ccc(C(=O)c2c(N)c(-c3nc(-c4ccc(OCC)cc4)cs3)c3ccccn23)cc1,inactive: -12.8%
20,Cc1ccc(C(=O)NCC(c2cccnc2)N2CCc3ccccc3C2)cc1C (configuration not stated),inactive: -15%
21,Cc1ccc(Cl)cc1NS(=O)(=O)c1ccc(N2CCCCS2(=O)=O)cc1,inactive: -2.18%
22,Cc1nc(-c2ccc(F)cc2)sc1CCNC(=O)c1ccc(C(C)(C)C)cc1,inactive: -7.84%
23,COc1ccc2nc(NC(=O)c3cc(=O)c4cc(C)c(C)cc4o3)sc2c1,inactive: -12.1%
24,Cc1ccc(NC(=O)Cn2c(=O)n(Cc3ccccc3)c(=O)c3c2c2cc(C)ccc2n3C)cc1,inactive: -14.7%
25,CC(=O)Nc1cccc(-c2cn3cccnc3n2)c1,inactive: -20.8%
26,CCOC(=O)CSc1nc2c(sc3ccccc32)c(=O)n1Cc1ccc(OC)cc1,inactive: -10.8%
27,Cc1cccc(NC(=O)c2sc(-n3nc(C)c(CCC(C)C)c3C)nc2C)c1,inactive: -12.4%
